# From patent US20210188986A1 (Ablynx, published 2021)
# T1: human OX40L on CHO-K1 cells (human, UniProt P23510 1-183)
# T1 sequence (looked up): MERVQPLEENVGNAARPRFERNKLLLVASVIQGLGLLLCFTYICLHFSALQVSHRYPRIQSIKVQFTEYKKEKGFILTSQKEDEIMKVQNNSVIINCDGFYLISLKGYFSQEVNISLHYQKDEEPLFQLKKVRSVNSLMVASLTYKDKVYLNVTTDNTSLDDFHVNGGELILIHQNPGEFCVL
# T2: human OX40L (recombinant, soluble) (human, UniProt P23510 51-183, limits assumed)
# T2 construct: also called hOX40L
# T2 sequence (looked up): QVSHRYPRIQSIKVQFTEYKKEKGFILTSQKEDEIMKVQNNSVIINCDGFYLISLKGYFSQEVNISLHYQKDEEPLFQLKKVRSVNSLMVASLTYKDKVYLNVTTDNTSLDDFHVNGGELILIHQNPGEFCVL
# T3: cynomolgus monkey OX40L (soluble) (cynomolgus monkey, UniProt G7NVH7 51-183)
# T3 construct: also called cyno OX40L
# T3 sequence: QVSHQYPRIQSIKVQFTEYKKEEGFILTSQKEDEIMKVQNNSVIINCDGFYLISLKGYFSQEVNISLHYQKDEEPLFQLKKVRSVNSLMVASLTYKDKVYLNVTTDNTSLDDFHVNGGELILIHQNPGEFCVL
# T4: human RANKL (human, UniProt O14788 140-317, limits assumed)
# T4 sequence (looked up): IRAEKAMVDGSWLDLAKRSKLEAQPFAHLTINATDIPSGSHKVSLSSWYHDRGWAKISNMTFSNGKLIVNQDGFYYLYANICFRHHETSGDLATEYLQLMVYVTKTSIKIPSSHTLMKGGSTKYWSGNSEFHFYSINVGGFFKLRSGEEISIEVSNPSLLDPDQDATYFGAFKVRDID
# T5: human FASL (human, UniProt P48023 134-281, limits assumed)
# T5 construct: also called hFASL
# T5 sequence (looked up): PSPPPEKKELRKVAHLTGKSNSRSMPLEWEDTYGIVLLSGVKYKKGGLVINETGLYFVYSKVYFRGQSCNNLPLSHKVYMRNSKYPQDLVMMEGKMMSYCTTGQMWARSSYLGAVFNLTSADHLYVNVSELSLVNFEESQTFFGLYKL
# T6: human TL-1A (human, UniProt O95150 72-251, limits assumed)
# T6 construct: also called hTL-1A
# T6 sequence (looked up): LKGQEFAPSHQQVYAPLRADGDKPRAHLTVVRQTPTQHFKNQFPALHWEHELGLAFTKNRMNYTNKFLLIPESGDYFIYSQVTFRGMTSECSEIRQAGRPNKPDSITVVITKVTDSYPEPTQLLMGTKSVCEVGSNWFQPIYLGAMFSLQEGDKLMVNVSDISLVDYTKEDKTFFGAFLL
# T7: human TNFβ (human, UniProt P01374 35-205)
# T7 construct: also called hTNFβ
# T7 sequence (looked up): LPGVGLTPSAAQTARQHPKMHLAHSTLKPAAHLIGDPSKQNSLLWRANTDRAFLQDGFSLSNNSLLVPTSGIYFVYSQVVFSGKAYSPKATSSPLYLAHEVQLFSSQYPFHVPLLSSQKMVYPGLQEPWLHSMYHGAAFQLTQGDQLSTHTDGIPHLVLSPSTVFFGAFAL
# T8: human CD40L (human, UniProt P29965 113-261, limits assumed)
# T8 sequence (looked up): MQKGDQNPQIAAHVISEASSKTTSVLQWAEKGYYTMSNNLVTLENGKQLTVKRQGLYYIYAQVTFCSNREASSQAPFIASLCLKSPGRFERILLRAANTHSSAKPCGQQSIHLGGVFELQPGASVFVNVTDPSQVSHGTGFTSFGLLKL
# T9: human CD30L (human, UniProt P32971 63-234, limits assumed)
# T9 sequence (looked up): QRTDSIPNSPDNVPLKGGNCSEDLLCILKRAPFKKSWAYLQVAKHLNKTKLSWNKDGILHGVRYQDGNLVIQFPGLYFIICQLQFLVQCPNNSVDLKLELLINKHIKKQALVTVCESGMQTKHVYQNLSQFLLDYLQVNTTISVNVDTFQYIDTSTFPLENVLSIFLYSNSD
# T10: cyno OX40L on CHO-K1 cells (cynomolgus monkey, UniProt G7NVH7 1-183)
# T10 construct: whole, on cells
# T10 sequence: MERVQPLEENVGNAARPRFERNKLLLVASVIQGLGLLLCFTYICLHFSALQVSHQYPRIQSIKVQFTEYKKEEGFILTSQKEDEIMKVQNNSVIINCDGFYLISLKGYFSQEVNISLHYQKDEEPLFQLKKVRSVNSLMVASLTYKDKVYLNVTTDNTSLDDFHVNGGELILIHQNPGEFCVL
# B1: ISVD construct […] (VHH)
# chain: DVQLVESGGGVVQPGGSLRLSCAASGRTFSSIYAKGWFRQAPGKEREFVAAISRSGRSTSYADSVKGRFTISRDNSKNTVYLQMNSLRPEDTALYYCAAVGGATTVTASEWDYWGQGTLVTVSSGGGGSGGGGSGGGGSGGGGSGGGGSGGGGSGGGGSEVQLVESGGGVVQPGGSLRLSCAASGRTFSSIYAKGWFRQAPGKEREFVAAISRSGRSTSYADSVKGRFTISRDNSKNTVYLQMNSLRPEDTALYYCAAVGGATTVTASEWDYWGQGTLVTVSSGGGGSGGGGSGGGGSGGGGSGGGGSGGGGSGGGGS[about 120 residues skipped]GGGGSGGGSEVQLVESGGGVVQPGGSLRLSCAASGFTFRSFGMSWVRQAPGKGPEWVSSISGSGSDTLYADSVKGRFTISRDNSKNTLYLQMNSLRPEDTALYYCTIGGSLSRSSQGTLVTVSSGGGGSGGGSEVQLVESGGGVVQPGGSLRLS[about 80 residues skipped]RGQGTLVKVSSA
# B2: ISVD construct […] (VHH)
# chain: DVQLVESGGGVVQPGGSLRLSCAASGRTFSSIYAKGWFRQAPGKEREFVAAISRSGRSTSYADSVKGRFTISRDNSKNTVYLQMNSLRPEDTALYYCAAVGGATTVTASEWDYWGQGTLVTVSSGGGGSGGGSEVQLVESGGGVVQPGGSLRLSCAASGRTFSSIYAKGWFRQAPGKEREFVAAISRSGRSTSYADSVKGRFTISRDNSKNTVYLQMNSLRPEDTALYYCAAVGGATTVTASEWDYWGQGTLVTVSSGGGGSGGGS[about 120 residues skipped]GGGGSGGGSEVQLVESGGGVVQPGGSLRLSCAASGFTFRSFGMSWVRQAPGKGPEWVSSISGSGSDTLYADSVKGRFTISRDNSKNTLYLQMNSLRPEDTALYYCTIGGSLSRSSQGTLVTVSSGGGGSGGGSEVQLVESGGGVVQPGGSLRLS[about 80 residues skipped]RGQGTLVKVSSA
# notes: Pentavalent, trispecific single chain of five VHH: 1E07/1-9GS-1E07/1-9GS-1C02/1-9GS-ALB23002-9GS-1C02/1-A; Produced in Pichia pastoris; also called F0273000252; F0275000252
# Tests used:
# [1] = molecular target: T1, human OX40L on CHO-K1 cells; assay: cell-based or functional assay
# [2] = molecular target: T11, human membrane TNFα on HEK293H cells (human, UniProt P01375); assay: flow cytometry, fixed HEK293H membrane TNFα cells, 1 h
# T11 construct: whole, on cells; also called membrane expressed TNFα
# Description: (§1) Samples were washed and resuspended in FACS Buffer (D-PBS with 10% FBS and 0.05% sodium azide supplemented with 5 nM TOPRO3). Cell suspensions were then analyzed on an iQuescreener. EC50 values were calculated using GraphPad Prism.
# [3] = molecular target: T12, cynomolgus monkey TNFα (soluble) (cynomolgus monkey, UniProt P79337 77-233); assay: Gyrolab in-solution affinity, 48 h incubation
# T12 construct: also called cyno TNFα; cyno TNF
# Description: (§2) Fitting of the dilution series was done using Gyrolab Analysis software, where KD- and receptor-controlled curves were analyzed to determine the KD value.
# [4] = molecular target: T2, human OX40L (recombinant, soluble); assay: Gyrolab in-solution affinity, 48 h incubation
# Description: as §2
# [5] = molecular target: T13, human TNFα (recombinant, soluble) (human, UniProt P01375 part only); assay: Gyrolab in-solution affinity, 48 h incubation
# T13 construct: also called hTNFα; soluble TNFα
# Description: as §2
# [6] = molecular target: T3, cynomolgus monkey OX40L (soluble); assay: Gyrolab in-solution affinity, 48 h incubation
# Description: as §2
# [7] = molecular target: T1, human OX40L on CHO-K1 cells; assay: flow cytometry on fixed CHO-K1 cells expressing human OX40L, 48 h
# Description: as §1
# [8] = molecular target: T14, cynomolgus monkey serum albumin (cynomolgus monkey); assay: Gyrolab in-solution affinity, 2 h incubation
# T14 construct: also called cyno serum albumin; SA (cynomolgus monkey)
# Description: as §2
# human serum albumin = molecular target: T15, human serum albumin (human, UniProt P02768); assay: Gyrolab in-solution affinity, 2 h incubation
# T15 construct: also called HSA; SA (human)
# Description: as §2
# human RANKL = molecular target: T4, human RANKL; assay: SPR (ProteOn XPR36), RANKL injected over immobilized construct; also listed among the immobilized TNF related cytokines
# [9] = molecular target: T13, human TNFα (recombinant, soluble); assay: cell-based or functional assay
# human FASL = molecular target: T5, human FASL; assay: SPR (ProteOn XPR36), cytokine immobilized, construct injected
# Description: (§3) TNF superfamily members human FASL, TNFβ, LIGHT, TL-1A, RANKL were tested as related cytokines for TNFα.
# (§4) Flow rate during activation, deactivation and ligand injection was set to 30 μl/min. The pH of the 10 mM acetate immobilization buffer was chosen by subtracting ˜1.5 from the pl of each ligand.
# human LIGHT = molecular target: T16, human LIGHT (human, UniProt O43557 74-240, limits assumed); assay: as above
# T16 construct: also called hLIGHT
# Description: as §3, §4
# human TL-1A = molecular target: T6, human TL-1A; assay: as above
# Description: as §3, §4
# human TNFβ = molecular target: T7, human TNFβ; assay: as above
# Description: as §3, §4
# human TRAIL = human TRAIL (human, UniProt P50591 114-281, limits assumed); assay: SPR (ProteOn XPR36), construct immobilized, ligand injected
# human CD40L = molecular target: T8, human CD40L; assay: as above
# human CD30L = molecular target: T9, human CD30L; assay: as above
# [10] = molecular target: T12, cynomolgus monkey TNFα (soluble); assay: cell-based or functional assay
# [11] = molecular target: T13, human TNFα (recombinant, soluble); assay: cell-based or functional assay; remark: listed apart in the source
# [12] = molecular target: T11, human membrane TNFα on HEK293H cells; assay: flow cytometry, fixed HEK293H membrane TNFα cells, 24 h
# Description: as §1
# [13] = molecular target: T11, human membrane TNFα on HEK293H cells; assay: flow cytometry, viable HEK293H membrane TNFα cells, 1 h
# Description: as §1
# [14] = molecular target: T1, human OX40L on CHO-K1 cells; assay: cell-based or functional assay; remark: listed apart in the source
# [15] = molecular target: T10, cyno OX40L on CHO-K1 cells; assay: flow cytometry on fixed CHO-K1 cells expressing cyno OX40L, 48 h
# Description: as §1
# [16] = molecular target: T12, cynomolgus monkey TNFα (soluble); assay: Gyrolab in-solution affinity, 24 h incubation
# Description: as §2
# [17] = molecular target: T2, human OX40L (recombinant, soluble); assay: Gyrolab in-solution affinity, 24 h incubation
# Description: as §2
# [18] = molecular target: T13, human TNFα (recombinant, soluble); assay: Gyrolab in-solution affinity, 24 h incubation
# Description: as §2
# [19] = molecular target: T3, cynomolgus monkey OX40L (soluble); assay: Gyrolab in-solution affinity, 24 h incubation
# Description: as §2
# [20] = molecular target: T1, human OX40L on CHO-K1 cells; assay: flow cytometry on fixed CHO-K1 cells, 48 h
# Description: as §1
# [21] = molecular target: T10, cyno OX40L on CHO-K1 cells; assay: flow cytometry on fixed CHO-K1 cells, 48 h
# Description: as §1
# T13 sequence (P01375 77-233 limits assumed): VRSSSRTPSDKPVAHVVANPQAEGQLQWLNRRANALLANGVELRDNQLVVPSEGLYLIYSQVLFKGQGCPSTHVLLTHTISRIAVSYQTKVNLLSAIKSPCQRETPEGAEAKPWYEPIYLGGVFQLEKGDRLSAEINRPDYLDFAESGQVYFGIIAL
# T11 sequence (P01375 whole entry): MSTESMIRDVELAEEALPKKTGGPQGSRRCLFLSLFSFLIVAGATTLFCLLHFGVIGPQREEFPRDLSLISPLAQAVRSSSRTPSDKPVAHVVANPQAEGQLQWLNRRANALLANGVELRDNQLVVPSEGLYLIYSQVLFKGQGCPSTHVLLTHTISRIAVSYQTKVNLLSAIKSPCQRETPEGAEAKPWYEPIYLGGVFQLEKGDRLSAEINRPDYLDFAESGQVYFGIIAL
# T12 sequence (P79337 77-233 limits assumed): as the sequence (P01375 77-233 limits assumed) above, with L37V, R44T, T72N, R138L counted along it
# Chain of human TRAIL (P50591 114-281 limits assumed): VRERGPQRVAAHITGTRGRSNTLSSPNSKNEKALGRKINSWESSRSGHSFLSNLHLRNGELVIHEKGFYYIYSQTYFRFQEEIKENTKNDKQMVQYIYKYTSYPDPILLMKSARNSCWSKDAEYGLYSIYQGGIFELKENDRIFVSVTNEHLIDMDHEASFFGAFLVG
# Chain of human LIGHT (O43557 74-240 limits assumed): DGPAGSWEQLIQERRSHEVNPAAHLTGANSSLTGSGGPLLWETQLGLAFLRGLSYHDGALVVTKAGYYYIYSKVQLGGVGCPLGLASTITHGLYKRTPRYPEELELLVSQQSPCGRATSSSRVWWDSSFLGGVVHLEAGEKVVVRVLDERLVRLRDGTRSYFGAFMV
binder,measurement,setting,value
B1,"OX40L PBMC assay (IC50, pM)",[1],866 pM
same,Ratio IC50 anti-hOX40L reference mAb/ISVD construct,[1],2
B2,EC50,[2],0.147 nM
same,Kd,[3],0.0343 nM
same,Kd,[4],0.0282 nM
same,Kd,[5],0.0086 nM
same,Kd,[6],0.0098 nM
same,EC50,[7],0.0133 nM
same,Kd,[8],11.2 nM
same,Kd,human serum albumin,10.7 nM
same,binding result,human RANKL,no binding (tested: 1 µM RANKL; 10 nM or 300 nM F027300252)
same,"NFkB assay IC50 (M), HEK293_NFκB-NLucP reporter",[9],3.1e-11 M
same,binding result,human FASL,no binding (tested: 10 nM or 300 nM F027300252)
same,binding result,human LIGHT,no binding (tested: 10 nM or 300 nM F027300252)
same,binding result,human TL-1A,no binding (tested: 10 nM or 300 nM F027300252)
same,binding result,human TNFβ,no binding (tested: 10 nM or 300 nM F027300252)
same,binding result,human TRAIL,no binding (tested: 1 µM TRAIL)
same,binding result,human CD40L,no binding (tested: 1 µM CD40L)
same,binding result,human CD30L,no binding (tested: 1 µM CD30L)
same,"mean IC50 [nM] (@10 ng/ml cyno TNF), A549/NFκB-luc reporter",[10],0.21 nM
same,"mean IC50 [nM] (@15 ng/ml human TNF), A549/NFκB-luc reporter",[11],0.22 nM
same,EC50,[12],0.0202 nM
same,EC50,[13],0.0904 nM
same,"PBMC activity assay IC50 (M), IL2 release",[14],2.58e-09 M
same,EC50,[15],0.0118 nM
same,"OX40L PBMC assay (IC50, pM)",[1],1090 pM
same,Ratio IC50 anti-hOX40L reference mAb/ISVD construct,[1],10
same,Kd,[16],0.0413 nM
same,Kd,[17],0.0497 nM
same,Kd,[18],0.0089 nM
same,Kd,[19],0.0083 nM
same,factor of better binding than anti-hOX40L reference mAb,[20],> 10 fold
same,factor of better binding than anti-hOX40L reference mAb,[21],> 10 fold
